According to article PMC4336329 (PLoS ONE, 2015):
Out of some 310,000 compounds screened, about 2,200 (0.71%) showed an effect of 50% or more. The effect is printed as a negative number. The list shows a part of the results.

molecular target: human ether-à-go-go-related gene (hERG) potassium channel (human, UniProt Q12809); experiment: primary screen, population patch clamp on CHO cells stably expressing hERG
Sequence (Q12809 whole entry, looked up): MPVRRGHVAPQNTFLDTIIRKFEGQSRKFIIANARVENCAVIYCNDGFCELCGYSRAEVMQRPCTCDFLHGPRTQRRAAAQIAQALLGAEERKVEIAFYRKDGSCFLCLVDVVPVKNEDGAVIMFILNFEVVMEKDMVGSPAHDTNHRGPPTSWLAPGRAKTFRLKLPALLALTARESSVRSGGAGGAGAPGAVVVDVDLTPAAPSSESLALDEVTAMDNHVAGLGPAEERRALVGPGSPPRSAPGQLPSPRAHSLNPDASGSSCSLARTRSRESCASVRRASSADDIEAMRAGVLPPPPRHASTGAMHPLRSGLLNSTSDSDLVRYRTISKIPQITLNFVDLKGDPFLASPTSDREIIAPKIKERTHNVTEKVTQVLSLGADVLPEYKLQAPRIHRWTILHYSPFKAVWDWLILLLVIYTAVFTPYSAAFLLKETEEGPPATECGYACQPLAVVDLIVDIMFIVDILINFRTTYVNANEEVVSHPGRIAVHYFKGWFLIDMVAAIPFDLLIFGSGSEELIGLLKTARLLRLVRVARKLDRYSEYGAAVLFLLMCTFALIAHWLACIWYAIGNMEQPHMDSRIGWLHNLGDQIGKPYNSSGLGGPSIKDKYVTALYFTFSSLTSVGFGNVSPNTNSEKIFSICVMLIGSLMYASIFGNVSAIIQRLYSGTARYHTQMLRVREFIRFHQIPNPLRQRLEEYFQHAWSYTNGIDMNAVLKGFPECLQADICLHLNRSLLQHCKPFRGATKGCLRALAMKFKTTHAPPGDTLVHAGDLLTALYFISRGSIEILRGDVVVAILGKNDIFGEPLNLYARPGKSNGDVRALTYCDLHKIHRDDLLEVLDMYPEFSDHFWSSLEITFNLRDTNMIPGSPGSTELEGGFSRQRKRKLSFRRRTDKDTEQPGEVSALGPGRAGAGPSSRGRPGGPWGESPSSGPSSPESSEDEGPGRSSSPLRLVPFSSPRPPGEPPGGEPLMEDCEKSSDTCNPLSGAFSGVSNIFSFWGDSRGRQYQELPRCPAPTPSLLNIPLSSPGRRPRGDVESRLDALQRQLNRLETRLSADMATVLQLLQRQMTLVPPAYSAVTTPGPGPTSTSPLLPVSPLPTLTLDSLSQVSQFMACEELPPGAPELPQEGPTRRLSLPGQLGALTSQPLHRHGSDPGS

Compound	hERG current change (%, negative = inhibition) at 1uM
CC(C)c1ccc(C(O)P(=O)(OC2CCCCC2)OC2CCCCC2)cc1 (centres unmarked)	9.04%
CN(Cc1ccccc1)CC1CCCN(CCc2ccccc2F)C1 (centres unmarked)	-5.54%
Cn1c(=O)oc2cc(S(=O)(=O)NCCC(=O)Nc3ccc4c(c3)OCCO4)ccc21	6.09%
CCCCn1c(-c2ccc([N+](=O)[O-])cc2)n[nH]c1=S	-2.71%
O=C1C(=O)N(c2ccccn2)C(c2cccc(F)c2)/C1=C(/O)c1ccccc1 (centres unmarked)	-1.65%
Cc1c(Cc2ccccc2)sc(N)c1C(N)=O	-8.55%
CCOCCCNS(=O)(=O)c1ccccc1	15.7%
Cc1ccc(NC(=O)CCS(=O)(=O)c2ccc3c(c2)NC(=O)C(C)S3)nc1 (centres unmarked)	11%
NS(=O)(=O)c1cc(C(=O)N2CCc3ccccc32)c(Cl)cc1Cl	-8.88%
CN(C)c1ccc(CN(C(=O)COc2ccc(F)cc2)C2CCS(=O)(=O)C2)cc1 (centres unmarked)	-3.18%
O=S1(=O)N=C(N/N=C/c2ccccn2)c2ccccc21	3.65%
COC(=O)CN(C)C1CC(=O)N(c2ccc(Cl)cc2)C1=O (centres unmarked)	-11.3%
O=C(Nc1cccc(F)c1)/C(=C\c1cccnc1)NC(=O)c1cccs1	7.48%
CCOc1cc(/C=C2\SC(=S)N(N3CCOCC3)C2=O)ccc1O	5.1%
COc1ccccc1N1CCN(Cc2ccccc2)CC1.O=C(O)C(=O)O	6.85%
Cc1nn(-c2ccccc2)c(=S)n1-c1ccccc1	11.2%
COc1ccc(Cl)c(NC(=O)Nc2c(C)n(-c3ccccc3)c(=O)n2C)c1	9%
COc1ccc(/C=c2\s/c(=C\C(=O)C(C)(C)C)[nH]c2=O)cc1O	3.15%
Cc1cccc(Nc2nc(-c3ccc(F)cc3)cs2)n1	11.4%
CCc1ccc(NC(=O)C2CCCN2c2nn3c(=O)cc(C)nc3s2)cc1 (centres unmarked)	4.97%
N/C(=N\OC(=O)COc1ccc(Br)cc1)c1ccncc1	8.38%
COc1cc2c(cc1OC)C(c1ccccc1Br)NC(=O)C2 (centres unmarked)	13.8%
Nc1ccc(S(N)(=O)=O)cc1	5.26%
CC(=NCC1CCCO1)c1c(O)n(-c2ccc(Cl)cc2)c(=O)[nH]c1=O (centres unmarked)	9.81%
O=S(=O)(NCc1cccc(C(F)(F)F)c1)NCc1ccccc1F	-7.13%
CC(C)(C)c1ccc(C2(C)NC(=O)NC2=O)cc1 (centres unmarked)	13.7%
